Screen size: about 3,200 compounds; about 110 (3.4%) showed an effect of 50% or more. The list shows a part of the results.
tested on: T1, V. cholerae SAD30; set-up: species or system S. aureus MSSA476 (TSB) or V. cholerae SAD30 (LB); 384-well bacterial growth screen at 25 uM, OD600 relative to DMSO control; details: relative growth, OD600, LB; 25 µM; inhibitor
T1 construct: SAD30

Row | SMILES | % of control remaining
1 | C=CC(=O)N1CCC(C(=O)NC2(Cc3ccccc3)CCCC2)CC1 [3-H12, N-(1-benzylcyclopentyl)-1-(prop-2-enoyl)piperidine-4-carboxamide] | 92.4426%
2 | COc1ccc(OC)c(-c2csc(NC(=O)CCl)n2)c1 [4-H12, 2-chloro-N-[4-(2,5-dimethoxyphenyl)-1,3-thiazol-2-yl]acetamide] | 100.237%
3 | CC(Cl)C(=O)N1CC(c2cc(CO)on2)C1 (stereo not drawn) [7-M10, 2-chloro-1-{3-[5-(hydroxymethyl)-1,2-oxazol-3-yl]azetidin-1-yl}propan-1-one] | 81.1498%
4 | CC1CN(c2ccc(NC(=O)C(C#N)=Cc3ccco3)cc2)CC(C)O1 (stereo not drawn) [9-J09, 2-cyano-N-[4-(2,6-dimethylmorpholin-4-yl)phenyl]-3-(furan-2-yl)prop-2-enamide] | 84.3644%
5 | C=CC(=O)NCc1ccc(-n2cccn2)cc1 [1-M07, N-{[4-(1H-pyrazol-1-yl)phenyl]methyl}prop-2-enamide] | 89.0882%
6 | O=C(CCl)N1C[C@@H]2C[C@H]1CN2c1ccccc1 [5-E22, 2-chloro-1-[(1S,4S)-5-phenyl-2,5-diazabicyclo[2.2.1]heptan-2-yl]ethan-1-one] | 106.756%
7 | C=CC(=O)N1CCC(C(=O)N2CC=CCC2)(c2ccccc2)CC1 [3-J06, 1-[4-phenyl-4-(1,2,3,6-tetrahydropyridine-1-carbonyl)piperidin-1-yl]prop-2-en-1-one] | 95.6185%
8 | CC(Cl)C(=O)NCc1ccon1 (stereo not drawn) [7-I13, 2-chloro-N-[(1,2-oxazol-3-yl)methyl]propanamide] | 79.9604%
9 | C=CC(=O)N(CC)Cc1nc2ccsc2c(=O)[nH]1 [3-P16, N-ethyl-N-({4-oxo-3H,4H-thieno[3,2-d]pyrimidin-2-yl}methyl)prop-2-enamide] | 108.146%
10 | O=C(CCl)NOCc1ccccc1 [4-H22, N-(benzyloxy)-2-chloroacetamide] | 119.733%
11 | O=C(CCl)Nc1c(F)c(F)c(F)c(F)c1F [4-L08, 2-chloro-N-(2,3,4,5,6-pentafluorophenyl)acetamide] | 104.033%
12 | C=CC(=O)N1CC(C)c2ccc(S(N)(=O)=O)cc21 (stereo not drawn) [3-L16, 3-methyl-1-(prop-2-enoyl)-2,3-dihydro-1H-indole-6-sulfonamide] | 96.1478%
13 | C=CC(=O)N1CCNC(=O)C1Cc1nc2ccccc2o1 (stereo not drawn) [1-B20, 3-[(1,3-benzoxazol-2-yl)methyl]-4-(prop-2-enoyl)piperazin-2-one] | 92.2473%
14 | CC(Cl)C(=O)N(c1ccccc1)C1CCOC1 (stereo not drawn) [7-G14, 2-chloro-N-(oxolan-3-yl)-N-phenylpropanamide] | 72.8234%
15 | CC(CNC(=O)C(C)Cl)Oc1cccc(Cl)c1 (stereo not drawn) [6-F13, 2-chloro-N-[2-(3-chlorophenoxy)propyl]propanamide] | 82.8135%
16 | CC(C)Oc1ccc(C=C(C#N)C(=O)NC2CCCC2)cc1 [8-O10, 2-cyano-N-cyclopentyl-3-[4-(propan-2-yloxy)phenyl]prop-2-enamide] | 68.3209%
17 | C=CC(=O)N1CCC(C(=O)N2CCC(C(=O)NC3CC3)CC2)CC1 [2-D10, N-cyclopropyl-1-[1-(prop-2-enoyl)piperidine-4-carbonyl]piperidine-4-carboxamide] | 95.2909%
18 | C=CC(=O)Nc1cc(C(=O)CC)ccc1F [2-C22, N-(2-fluoro-5-propanoylphenyl)prop-2-enamide] | 116.289%
19 | CNC(=O)C(NC(=O)CCl)c1ccccc1 (stereo not drawn) [6-M06, 2-(2-chloroacetamido)-N-methyl-2-phenylacetamide] | 92.0656%
20 | CN(CC(=O)Nc1ccccc1C(F)(F)F)C(=O)CCl [4-K05, 2-chloro-N-methyl-N-({[2-(trifluoromethyl)phenyl]carbamoyl}methyl)acetamide] | 103.86%
21 | C=CC(=O)N1CCC(C(=O)NCc2ccc(Cl)cc2Cl)CC1 [1-E20, N-[(2,4-dichlorophenyl)methyl]-1-(prop-2-enoyl)piperidine-4-carboxamide] | 87.2945%
22 | CC(Cl)C(=O)Nc1ccc(C(=O)N(C)C2CCCN(C)C2)cc1 (stereo not drawn) [7-I20, 4-(2-chloropropanamido)-N-methyl-N-(1-methylpiperidin-3-yl)benzamide] | 79.1674%
23 | N#CC(=Cc1cc(F)ccc1F)C(=O)Nc1cc(Cl)ccc1Cl [8-A12, 2-cyano-N-(2,5-dichlorophenyl)-3-(2,5-difluorophenyl)prop-2-enamide] | 80.2855%
24 | C=CC(=O)Nc1ccnn1CC1CC1 [3-G09, N-[1-(cyclopropylmethyl)-1H-pyrazol-5-yl]prop-2-enamide] | 95.442%
25 | O=C(CCl)NC(=O)Nc1ccccc1 [4-I17, 3-(2-chloroacetyl)-1-phenylurea] | 100.237%
26 | N#CC(=Cc1ccc(Sc2ccccc2)o1)C(=O)Nc1ccccc1 [8-K05, 2-cyano-N-phenyl-3-[5-(phenylsulfanyl)furan-2-yl]prop-2-enamide] | 68.1849%
27 | O=C(CCl)Nc1ccc(F)cc1[N+](=O)[O-] [4-I07, 2-chloro-N-(4-fluoro-2-nitrophenyl)acetamide] | 90.7483%
28 | C=CC(=O)NC1CCC(c2nc(CC)no2)CC1 (stereo not drawn) [1-O08, N-[4-(3-ethyl-1,2,4-oxadiazol-5-yl)cyclohexyl]prop-2-enamide] | 89.2377%
29 | O=C(CCl)NCCSc1ccccc1 [4-G21, 2-chloro-N-[2-(phenylsulfanyl)ethyl]acetamide] | 113.522%
30 | CCOc1ccc2nc(NC(=O)CCl)sc2c1 [4-L10, 2-chloro-N-(6-ethoxy-1,3-benzothiazol-2-yl)acetamide] | 94.3714%
